The values that follow come from patent US20230242615A1 (BEIJING VDJBIO, published 2023).

First the molecules themselves.
B1: IL13Rα2-(GGGGS)2-IL4Rα-(GGGGS)2-hIgG4 Fc S228P (Fc fusion)
chain: DTEIKVNPPQDFEIVDPGYLGYLYLQWQPPLSLDHFKECTVEYELKYRNIGSETWKTIITKNLHYKDGFDLNKGIEAKIHTLLPWQCTNGSEVQSSWAETTYWISPQGIPETKVQDMDCVYYNWQYLLCSWKPGIGVLLDTNYNLFYWYEGLDHALQCVDYIKADGQNIGCRFPYLEASDYKDFYICVNGSSENKPIRSSYFTFQLQNIVKPLPPVYLTFTRESSCEIKLKWSIPLGPIPARCFDYEIEIREDDTTLVTATVENETYTLKTTNETRQLCFVVRSKVNIYCSDDGIWSEWSDKQCWEGEDLSKKTLLRGGGGSGGGGS[here about 200 residues without letters]GGGGSGGGGS[here human IgG4 Fc with S228P (EU numbers) without letters]
notes: also called IL13Rα2-IL4Rα-Fc; IL13Ra2-IL4Rα-Fc
B2: Interleukin 13 (ligand)
chain: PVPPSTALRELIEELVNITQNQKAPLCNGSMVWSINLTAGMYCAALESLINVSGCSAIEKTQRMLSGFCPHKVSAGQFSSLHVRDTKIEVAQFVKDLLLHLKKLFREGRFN
notes: also called IL13; IL-13

Assay [1] concerns the target T1, Interleukin 4 (human, UniProt P05112 25-153).
T1 construct: also called IL4; IL-4
T1 sequence: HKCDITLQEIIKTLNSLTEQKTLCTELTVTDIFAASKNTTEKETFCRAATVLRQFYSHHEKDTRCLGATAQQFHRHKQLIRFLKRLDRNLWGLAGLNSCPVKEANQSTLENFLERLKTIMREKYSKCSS
The assay is described as follows: SPR, BIAcore 3000; fusion polypeptide immobilized on the chip, cytokine in flow, 25 C.

In assay [2] the target is B2. Described as above.
Assay [3] addresses T1, Interleukin 4. The assay is described as follows: cell-based or functional assay.
In assay [4] the target is B2. The assay can be described thus: cell-based or functional assay.
The target of assay [5] is T2, IL4Rα-IL13Rα1-Fc (Homo sapiens (Human), UniProt P24394 26-232; P78552 22-343).
T2 construct: Comparison construct named only by its order of components; not shown: Fc
The assay can be described thus: SPR, BIAcore 3000; fusion polypeptide immobilized on the chip, cytokine in flow, 25 C. Background: Surface plasmon resonance follows binding to a sensor surface in real time, without labels.

In assay [6] the target is T3, IL4Rα-IL13Rα2-Fc (Homo sapiens (Human), UniProt P24394 26-232; Q14627 27-343).
T3 construct: Comparison construct named only by its order of components; not shown: Fc
The assay is described as above.

Assay [7] deals with T4, IL13Rα1-IL4Rα-Fc (Homo sapiens (Human), UniProt P78552 22-343; P24394 26-232).
T4 construct: Comparison construct named only by its order of components; not shown: Fc
The assay is described as above.

The target of assay [8] is B1. The assay is described as follows: ELISA, fusion polypeptide coated, IL13 in a gradient mixed with fixed IL4 (1 ng/ml) as competitor, detection with HRP anti-IL13 antibody; signal as a ratio to IL13 without IL4. A general note: ELISA stands for enzyme-linked immunosorbent assay.

What is called Kd is a measure of binding affinity in units of concentration. Read a high Kd as a looser complex. The term koff denotes a measure of how fast the partners let go of each other. The term kon denotes a measure of how fast the partners come together. Low readings indicate slow association, high ones fast association. In assay [1], B1 showed a Kd of 74.1 pM, a koff of 0.0035 s⁻¹ and a kon of 4.72e+07 M⁻¹ s⁻¹. Further, in assay [2], binding was put at a Kd of 16.8 pM, the dissociation rate constant (koff) came out at 2.45e-05 s⁻¹ and the kon turned out to be 1.46e+06 M⁻¹ s⁻¹. In assay [3], the “IC50 (nM) Blocking IL4, TF-1 cell proliferation” value is 1.1 nM and the “Relative activity (blocking IL4, against Dupilumab)” value was 2.8 fold. In assay [4], the “IC50 (nM) Blocking IL13, TF-1 cell proliferation” value came out at 1.02 nM and the “Relative activity (blocking IL13, against Dupilumab)” value amounted to 20.1 fold.
In assay [5], B2 displayed a koff of 9.85e-05 s⁻¹ and an association rate constant (kon) of 101000 M⁻¹ s⁻¹. Moreover, in assay [6], binding was characterised by a dissociation constant (Kd) of 42.5 pM, the koff was found to be 6.03e-05 s⁻¹ and the kon was 1.42e+06 M⁻¹ s⁻¹. Further, in assay [7], the Kd came to 565 pM, the koff came out at 7.52e-05 s⁻¹ and the kon amounted to 133000 M⁻¹ s⁻¹. Also, the binding result in assay [8] is “binds”.
